Counter-ions that a name gives are not always drawn. Some of the results follow. Repeats are few or missing, and single values can be far off.
System: OVCAR4
Assay: log2 surviving fraction (library drug vs vehicle, or drug + carboplatin vs carboplatin alone; relative to plate median); ovarian cancer lines: OVCAR4 is platinum-sensitive and Ov4Carbo platinum-resistant; higher = more cell survival
Conditions: library drug concentration 10 µM; 7 days; carboplatin co-treatment 0 µM

Compound	log2 surviving fraction
CCCC(=O)OCOC(=O)C1=C(C)NC(C)=C(C(=O)OC)C1c1cccc(Cl)c1Cl (centres undefined) [Cleviprex (Clevidipine)]	0.48
C=CCOc1ccccc1OCC(O)CNC(C)C (centres undefined) [Oxprenolol HCl]	-0.17
Cc1ccc(C(=O)c2cc(O)c(O)c([N+](=O)[O-])c2)cc1 [Tolcapone]	0.425
C[C@H]1COc2c(N3CCN(C)CC3)c(F)cc3c(=O)c(C(=O)O)cn1c23 [Levofloxacin (Levaquin)]	-0.878
Cc1cccc([C@H](C)c2c[nH]cn2)c1C [Dexmedetomidine HCl (Precedex)]	0.0439
CN1CCC(=C2c3ccccc3CCc3cccnc32)CC1 [Azatadine dimaleate]	0.137
CC(C)C(=O)Oc1ccc(CO)cc1[C@H](CCN(C(C)C)C(C)C)c1ccccc1 [Fesoterodine fumarate (Toviaz)]	0.0852
O=P(O)(O)C(Cl)(Cl)P(=O)(O)O [Clodronate Disodium]	-0.0646
CC[C@H]1OC(=O)[C@H](C)[C@@H](O[C@H]2C[C@@](C)(OC)[C@@H](O)[C@H](C)O2)[C@H](C)[C@@H](O[C@@H]2O[C@H](C)C[C@H](N(C)C)[C@H]2O)[C@](C)(O)C[C@@H](C)CN(C)[C@H](C)[C@@H](O)[C@]1(C)O [Azithromycin Dihydrate]	0.214
CNC(=O)Oc1ccc2c(c1)[C@]1(C)CCN(C)[C@@H]1N2C [Physostigmine Hemisulfate Salt]	-0.629
CCOC(=O)CC(=O)N1CCSC1COc1ccccc1OC (centres undefined) [Moguisteine]	0.139
O=C(Nc1ccc([N+](=O)[O-])cc1Cl)c1cc(Cl)ccc1O [Niclosamide (Niclocide)]	-8.03
CCCC1O[C@@H]2C[C@H]3[C@@H]4CCC5=CC(=O)C=C[C@]5(C)[C@H]4[C@@H](O)C[C@]3(C)[C@]2(C(=O)CO)O1 (some centres undefined) [Budesonide]	0.142
COC(=O)[C@H]1[C@H]2C[C@@H]3c4[nH]c5cc(OC)ccc5c4CCN3C[C@H]2C[C@@H](OC(=O)c2cc(OC)c(OC)c(OC)c2)[C@@H]1OC [Reserpine]	-7.97
CC(C(=O)O)c1ccc(C(=O)c2cccs2)cc1 (centres undefined) [Suprofen (Profenal)]	-7.09
Cc1ccc(C(=O)Nc2ccc(CN3CCN(C)CC3)c(C(F)(F)F)c2)cc1C#Cc1cnc2cccnn12	-8.68
CCCCOc1ccc(C(=O)CCN2CCCCC2)cc1 [Dyclonine HCl]	0.133

Compound	log2 surviving fraction
CN(C)CCCN1c2ccccc2CCc2ccccc21 [Imipramine HCl]	-0.561
Nc1nc(N)nc(-c2cc(Cl)ccc2Cl)n1 [Irsogladine]	0.165
CN1C(C(=O)Nc2ccccn2)=C(O)c2ccccc2S1(=O)=O [Piroxicam (Feldene)]	0.729
Cc1cc(-n2c(=O)[nH]c(=O)n(C)c2=O)ccc1Oc1ccc(SC(F)(F)F)cc1 [toltrazuril]	0.389
Cc1cc2c(cc1S(N)(=O)=O)S(=O)(=O)CCC2 [Meticrane]	0.348
CC(=O)Nc1ncc([N+](=O)[O-])s1 [Nithiamide]	1.51
[O-][n+]1cccc(CO)c1 [Mepiroxol]	0.246
O=P1(N(CCCl)CCCl)NCCCO1 (centres undefined) [Cyclophosphamide monohydrate]	1.78
c1ccc2[nH]c(-c3cscn3)nc2c1 [Thiabendazole]	-1.81
[O-][n+]1ccccc1[S-].[O-][n+]1ccccc1[S-].[Zn+2] [Pyrithione zinc]	-7.85
C[C@@H](O)[C@H]1C(=O)N2C(C(=O)[O-])=C(SC3Cn4cnc[n+]4C3)[C@H](C)[C@H]12 (some centres undefined) [Biapenem]	1.36
COc1cc2nc(N(C)CCCNC(=O)C3CCCO3)nc(N)c2cc1OC (centres undefined) [Alfuzosin hydrochloride (Uroxatral)]	0.473
C=CCc1cc(OC)c(O)c(C(=O)NCCO)c1 [Alibendol]	-0.263
CCOC(=O)c1c(C)n(C)c2ccc(O)cc12 [Mecarbinate]	0.363
CN1[C@@H]2CC[C@H]1C[C@@H](OC(c1ccccc1)c1ccccc1)C2 [Benztropine mesylate]	-1.65
CC(C)C[C@H](NC(=O)[C@@H](O)[C@H](N)Cc1ccccc1)C(=O)O [Ubenimex (Bestatin)]	-0.00804
CC(C)(C)c1ccc(C(O)CCCN2CCC(C(O)(c3ccccc3)c3ccccc3)CC2)cc1 (centres undefined) [Terfenadine]	-8.61

Source: the supplement of paper PMC8047034
